Experimental data published in PubChem BioAssay AID662 (National Center for Advancing Translational Sciences (NCATS), 2007).
The campaign covered roughly 71,000 compounds. About 1,800 (2.5%) were called active. The shares of active, inactive and inconclusive entries below differ from those in the screen. Calls come from the whole dose curve; as a rule, active = well fitted activation curve with a large enough effect in the signal ratio, with a control signal flat (not every such curve was filed as active); inconclusive = small, poorly fitted or top-dose-only effect, or effect the other way, or a change in a side signal; inactive = flat fitted curve, though single readings scatter; the % refers to the signal ratio. Where the call is inconclusive, the potency comes from a doubtful curve fit.

Assay: Cell signaling CRE-BLA (Fsk stim); for activity change, negative = inhibition: % of control where 0% means no effect
Settings: CHO CRE-bla reporter (cAMP response element driving beta-lactamase), forskolin EC10, beta-lactamase ratio; activity change, negative = inhibition: at 38.2 µM (top of the series) unless noted
Outline: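 Titrated compounds plus EC10 NKH 477 on CHO CRE-bla cells, 3 h, 37 °C. CCF4, 2 h RT. Ratio 460/530 nm → AC50.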
Potency is the fitted concentration of half-maximal effect; tags give direction and shape of the fitted curve.

| Structure (SMILES) | activity change, negative = inhibition | Potency |
| --- | --- | --- |
| O=C(Nc1ccc(Cc2ccc(NC(=O)N3CCOCC3)cc2)cc1)N1CCOCC1 | inconclusive: 5.82% |  |
| CCCNc1nc(N2CCOCC2)nc(N2CCOCC2)n1 |  | inconclusive: 0.0158 µM [falling, full curve, poor fit] |
| Cc1ccc(-c2nc(NC(=O)CSc3nnc(C)s3)ns2)cc1 | inactive: -10.7% |  |
| O=S1(=O)N=C(Oc2ccccc2)c2ccccc21 | inactive: 0.818% |  |
| COc1ccc(CN(C(=O)CSc2nnc(-c3ccccc3F)o2)c2ccc(F)cc2)cc1 | inactive: 8.29% |  |
| Cc1cc(N2CCN(C/C=C/c3ccccc3)CC2)n2ncnc2n1 | inactive: 0.0155% |  |
| C[C@]12C=CC(=O)C=C1CC[C@@H]1[C@H]3C[C@@H](O)[C@](O)(C(=O)CO)[C@]3(C)C[C@H](O)[C@]12F | inactive: -6.01% |  |
| COC(=O)C1=C(N)Oc2cc(C)n(CC3CCCO3)c(=O)c2C1c1ccccc1 (stereo not given) | inconclusive: 8.04% |  |
| Cc1cccn2c(=O)c(C=Nc3ccccc3)c(NCCO)nc12 |  | inconclusive: 15.8 µM [rising, single point] |
| N#Cc1ccccc1Cn1c(=O)n(Cc2ccc(C(=O)NCc3ccco3)cc2)c(=O)c2ccccc21 |  | inconclusive: 12.6 µM [rising, partial curve] |
| CCOC(=O)c1cc2sccc2n1CC(=O)c1ccc2c(c1)OCCO2 | inconclusive: -13.2% |  |
| CN(C)S(=O)(=O)c1cccc(C(=O)N(Cc2ccc(F)cc2)Cc2ccco2)c1 |  | inconclusive: 1.58 µM [rising, full curve, poor fit] |
| COc1ccc(-n2c(Cc3cccn3C)nnc2SCC(=O)Nc2cc(C)cc(C)c2)cc1 | inconclusive: -21.9% |  |
| COc1ccc(C2CC(=O)C3=C(C2)Nc2ncnn2C3c2ccccc2C)c(OC)c1 (stereo not given) |  | inconclusive: 10 µM [rising, single point] |
| CCOC(=O)c1c(NC(=O)CSc2ncn[nH]2)sc(C)c1C | inconclusive: -25.3% |  |
| Cc1noc(C)c1-c1ccc2ncnc(NCc3cccs3)c2c1 |  | inconclusive: 3.98 µM [rising, partial curve] |
| COc1cc(C#N)ccc1OCC(=O)c1ccc2c(c1)OCCO2 |  | inconclusive: 5.01 µM [falling, single point] |
| Cc1noc(N)c1C(=O)Nc1ccc(F)cc1 |  | inconclusive: 1.26 µM [rising, full curve, poor fit] |
| CN(C)c1nc(SCC#N)nc(N(C)C)n1 |  | inconclusive: 10 µM [rising, single point] |
| O=C(CSc1ccc2nnc(-c3ccccn3)n2n1)NCC1CCCO1 (stereo not given) | inconclusive: 22.4% |  |
| CC1N(C)c2cc(NC(=O)c3ccco3)ccc2C1(C)C (stereo not given) | inactive: -0.501% |  |
| COc1ccc(Cn2c(C3CC3)nc3ccc(NC(=O)c4ccco4)cc3c2=O)cc1 |  | inconclusive: 10 µM [rising, partial curve] |
| COc1ccc(C(=O)CCC(=O)N2CCN(c3ccc(N4CCOCC4)nn3)CC2)cc1 | inactive: -1.36% |  |
| CCOc1ccccc1C1CC(=O)Nc2cc3c(cc21)OCO3 (stereo not given) |  | inconclusive: 15.8 µM [rising, single point] |
| O=C1C=CCCC1 | inactive: -4.09% |  |
| Cc1cc(C)n(-c2ccc(C(=O)NCc3cccs3)cc2)n1 | inconclusive: -3.9% |  |
| N#Cc1cccc(NC(=O)N2CCCC3(CCN(S(=O)(=O)c4ccccc4)CC3)C2)c1 | inactive: -3.95% |  |

| Structure (SMILES) | activity change, negative = inhibition | Potency |
| --- | --- | --- |
| CCOc1cccc2cc(-c3csc(NC(=O)CCC(=O)N4CCN(C)CC4)n3)c(=O)oc12 | inconclusive: -1% |  |
| Cc1cc(C)n(-c2ccc(F)cc2)c(=O)c1C(=O)O | inconclusive: 12.2% |  |
| COc1ccccc1-c1nnc(NC(=O)c2ccc(S(=O)(=O)N(C)Cc3ccccc3)cc2)o1 | inactive: -13.1% |  |
| Cc1cc(CN2CCN(CCC#N)CC2)c(O)c(C2(C)CCCCC2)c1 |  | inconclusive: 25.1 µM [falling, single point] |
| CCOCCOc1nc2c(c(=O)n(C)c(=O)n2C)n1Cc1ccc(C)cc1 | inconclusive: 26.3% |  |
| Cc1noc(C)c1COC(=O)c1ccccc1NC(=O)Cc1ccccc1 |  | inconclusive: 12.6 µM [rising, partial curve] |
| CNc1nc(-c2ccc(C(=O)N(C)C)cc2)nc2ccccc12 |  | inconclusive: 20 µM [rising, single point] |
| O=C(N1CCN(c2ccccc2)CC1)C(F)(F)C(F)(F)F | inconclusive: 38.1% [at 7.6 µM] |  |
| CCn1c2ccccc2c2nnc(SCC(=O)N3CC(C)OC(C)C3)nc21 (stereo not given) |  | active: 10 µM |
| COCCCn1c(SCC(=O)Nc2nnc(C)s2)nnc1-c1ccoc1C |  | inconclusive: 25.1 µM [rising, single point] |
| CC1(C)Cc2c(sc(NC(=O)c3ccco3)c2C#N)CO1 | inactive: 16.1% |  |
| CCS(=O)(=O)N1CCC(C(=O)NCc2ccccn2)CC1 |  | inconclusive: 0.0501 µM [falling, partial curve, poor fit] |
| COc1ccccc1CNC(=O)CCC(=O)Nc1nnc(C)s1 |  | inconclusive: 12.6 µM [rising, partial curve] |
| Cc1nnc(NC(=O)CSc2nnc(Cc3cccn3C)n2-c2ccccc2)s1 |  | inconclusive: 12.6 µM [rising, single point] |
| Cc1nn(Cc2ccc(Cl)c(Cl)c2)c(C)c1NC(=O)c1cc(-c2ccc3c(c2)OCO3)on1 |  | active: 10 µM |
| CC1(C(=O)NC2CCCCCCC2)CCC(=O)N1CCN1CCOCC1 (stereo not given) | inconclusive: 11.1% |  |
| O=C(c1ccc2nc(N3CCOCC3)sc2c1)N1CCC2(CC1)OCCO2 | inactive: -2.93% |  |
| Cc1ccc(C)c(-n2nnnc2SCC(=O)Nc2cccc(-c3nnc4n3CCCCC4)c2)c1 |  | inconclusive: 3.16 µM [falling, full curve, poor fit] |
| Cc1cc(C)n(-c2ccn(Cc3ccc(Cl)cc3Cl)c(=O)n2)n1 | inconclusive: 14% |  |
| COc1ccc(-c2nc3c(=O)n(C)c(=O)[nH]c3n2CCc2ccccc2)cc1 | inactive: -4.37% |  |
| CCOC(=O)c1cc(-c2ccco2)nc2c1c(C)nn2-c1ccccc1 | inconclusive: 29.8% |  |
| C[C@H]1C2=C3C(CC[C@H]4C(OCc5ccc(F)cc5C(F)(F)F)OC[C@](C)([C@@H]34)N(C(=O)OC(C)(C)C)C2)C(CO)C1CO (stereo not given in full) | inconclusive: 4.13% |  |
| CC1CCc2c(sc3nc(SCC(=O)NCc4ccco4)nc(N)c23)C1 (stereo not given) |  | inconclusive: 10 µM [rising, partial curve] |
| O=C(Nc1ccccc1C(=O)NCc1ccccc1)c1ccco1 |  | inconclusive: 5.01 µM [rising, single point] |
| COc1ccc(OC)c(C2=Nn3c(nnc3-c3cccc(OC(C)C)c3)SC2)c1 |  | active: 1.26 µM |
| Cc1cc(SCC#N)n2nc(C)c(-c3ccccc3)c2n1 |  | active: 2.51 µM |
| CSC1=C(C#N)C(C)C2=C(CC(C)(C)CC2=O)N1 (stereo not given) |  | inconclusive: 7.94 µM [rising, partial curve] |

| Structure (SMILES) | activity change, negative = inhibition | Potency |
| --- | --- | --- |
| Cc1cccc(Nc2nnc(SCc3cn4ccsc4n3)s2)c1 | inconclusive: 29.7% |  |
| O=C(Nc1ccc(CCC(=O)N2CCCC2)cc1)c1ncn[nH]1 | inconclusive: -9.7% |  |
| COCCn1c(SCC(=O)N2CCCc3ccccc32)nnc1-c1ccco1 |  | inconclusive: 10 µM [rising, partial curve] |
| CCOc1cc(-c2noc(CCC(=O)N3CCOCC3)n2)ccc1OC | inconclusive: 26.9% |  |
| CCSc1nnc(C)n1-c1ccc(C(=O)O)cc1 | inactive: -5.81% |  |
| COc1cc(Cl)c(C)cc1NC(=O)COC(=O)c1cnc(C)cn1 | inconclusive: 0.115% |  |
| CC(=O)c1c(C(C)=O)c(C)n(NC(=O)c2cccnc2)c1C | inconclusive: -11.2% |  |
| Cc1c(CN(C)C)c2c(n1C)C(=O)c1ccc(Br)cc1-2 |  | active: 3.16 µM |
| Cc1cccc(OCCSc2cc(C)nc(N)n2)c1 | inactive: 24.1% |  |
| COC(=O)c1ccc(C)c(NC(=O)Cn2cnc3ccccc3c2=O)c1 | inactive: 1.54% |  |
| Nc1nc(SCc2ccccc2Cl)cc(C(=O)O)n1 | inactive: -1.24% [at 7.6 µM] |  |
| O=C(CCS(=O)(=O)Cc1ccccc1F)N1CCc2ccccc2C1 |  | inconclusive: 1.26 µM [rising, partial curve, poor fit] |
| CN(C)Cc1ccccc1-c1nc(N(C)Cc2ccco2)c2ccccc2n1 | inactive: 24% |  |
| CC1=C(C)C(=O)NC(Nc2nc(C)c3cc(C)cc(C)c3n2)N1 (stereo not given) |  | active: 0.794 µM |
| C=C(C)CSc1nnc([C@@H]2CCCN2C(=O)OC(C)(C)C)o1 | inactive: -0.504% |  |
| CCN(CC)CCNC(=O)c1nn(-c2ccc(C)cc2)c(=O)c2c1c1ccccc1n2C | inactive: -0.0702% |  |
| O=C(CCNS(=O)(=O)c1cccc2nsnc12)N1CCc2ccccc21 | inconclusive: -25.5% |  |
| Cc1nnc(NC(=O)CSc2nc3c(c(=O)n2CCc2ccccc2)SC(C)C3)s1 (stereo not given) | inconclusive: -2.15% |  |
| O=c1c(CCc2ccccc2)nc2cncnc2n1Cc1ccccc1Cl | inactive: -1.89% |  |
| CCOc1ccc2[nH]c(=O)c(CN(CC3COCCO3)C(=O)C3CC3)cc2c1 (stereo not given) | inactive: 0.311% |  |
| O=C(c1cccc(F)c1)N1CCN(c2cccc(C(F)(F)F)c2)CC1 | inconclusive: 17.9% |  |
| CCOC(=O)O[C@@H](C)OC(=O)[C@@H]1N2C(=O)[C@@H](NC(=O)[C@@H](N)c3ccccc3)[C@H]2SC1(C)C | inactive: -1.57% [at 17.1 µM] |  |
| COc1cccc(C2CC(=O)N3CN(c4ccccc4F)CSC3=C2C#N)c1 (stereo not given) | inconclusive: 25.3% |  |
| COCCNc1nc(-c2cccc(NS(C)(=O)=O)c2)nc2ccccc12 |  | inconclusive: 12.6 µM [rising, partial curve] |
| COC(=O)C(C)n1cnc2c(cnn2-c2ccc(Cl)cc2)c1=O (stereo not given) |  | inconclusive: 20 µM [rising, single point] |
| COc1cc(C2=NOC(C(=O)Nc3ccc(C)cc3)C2)cc(OC)c1OC (stereo not given) |  | inconclusive: 5.01 µM [rising, partial curve] |
